We go through one molecule from patent publication US20220273713A1, “METHOD OF INHIBITING OR ACTIVATING GAMMA DELTA T CELLS” (The University of Melbourne, priority 2019, published 2022).

For the experiment, the system named is in vitro pre-expanded CD3+Vδ2+ γδ T cells. Briefly: HMBPP or anti-CD3/anti-CD28 activation of purified in vitro-expanded Vδ2+ T cells ± neutralizing anti-BTN2A1 mAb. The format is cell-based, human. To be noted: HMBPP 0.5 ng/ml, 10 μg/ml neutralizing anti-BTN2A1 mAb, no APCs. On the procedure: CD25 expression was determined by flow cytometry, and IFN-γ concentration was determined by cytometric bead array (BD Bioscience) as per manufacturer instructions.

B1: clone 227: neutralizing anti-BTN2A1 mAb; VH SEQ ID NO: 108, VL SEQ ID NO: 109 (antibody, V domains shown)
VH: EVQLLESGGGLVQPGGSLRLSCAASGFTFSIYSMWWVRQAPGKGLEWVSRISPSGGGTYYADSVKGRFTISRDNSKNTLYLQMNSLRAEDTAVYYCTTPTVTTDYWGQGTLVTVSS
VL: [about 100 residues not spelt out]
modifications: amino acid sequence of clone 227 VH; amino acid sequence of clone 227 VL
Regarding B1, the “HMBPP-induced activation (CD25 upregulation, IFN-γ production)” value was “failed to upregulate CD25 and produce IFN-γ”.
